Data reported in patent publication US20180289802A1 (CELGENE, published 2018).

Experiments:
[1] = biological target: T1, human PD-1 (soluble / purified antigen, construct not stated) (human, UniProt Q15116 partial chain, limits assumed); experiment: Binding ELISA; drug substance Batch A, 5°C, 1 month
T1 construct: also called soluble antigen

[2] = biological target: T1, human PD-1 (soluble / purified antigen, …); experiment: Binding ELISA; drug product Batch A, 5°C upright, 1 month
[3] = biological target: T1, human PD-1 (soluble / purified antigen, …); experiment: Binding ELISA; drug substance Batch B, 25°C/60% RH, 1 month
[4] = biological target: T1, human PD-1 (soluble / purified antigen, …); experiment: Binding ELISA; drug substance Batch A, -20°C, T = 0
[5] = biological target: T1, human PD-1 (soluble / purified antigen, …); experiment: Binding ELISA; drug product Batch A, 5°C inverted, initial
[6] = biological target: T1, human PD-1 (soluble / purified antigen, …); experiment: Binding ELISA; drug product Batch A, -20°C, 3 months
[7] = biological target: T1, human PD-1 (soluble / purified antigen, …); experiment: Binding ELISA; drug substance Batch A, 25°C/60% RH, 1 month
[8] = biological target: T1, human PD-1 (soluble / purified antigen, …); experiment: Binding ELISA; drug product Batch A, 5°C inverted, 1 month
[9] = biological target: T1, human PD-1 (soluble / purified antigen, …); experiment: Binding ELISA; drug product Batch B, 25°C/60% RH upright, initial
[10] = biological target: T1, human PD-1 (soluble / purified antigen, …); experiment: Binding ELISA; drug product Batch B, 25°C/60% RH inverted, 0.5 month
[11] = biological target: T1, human PD-1 (soluble / purified antigen, …); experiment: Binding ELISA; drug product Batch B, 25°C/60% RH upright, 0.5 month
[12] = biological target: T1, human PD-1 (soluble / purified antigen, …); experiment: Binding ELISA; drug product Batch A, 5°C upright, 3 months
[13] = biological target: T1, human PD-1 (soluble / purified antigen, …); experiment: Binding ELISA; drug substance Batch A, 5°C, 3 months
[14] = biological target: T1, human PD-1 (soluble / purified antigen, …); experiment: Binding ELISA; drug substance Batch B, -70°C, 3 months
[15] = biological target: T1, human PD-1 (soluble / purified antigen, …); experiment: Binding ELISA; drug product Batch A, 25°C/60% RH inverted, 3 months
[16] = biological target: T1, human PD-1 (soluble / purified antigen, …); experiment: Binding ELISA; drug substance Batch B, -70°C, 1 month
[17] = biological target: T1, human PD-1 (soluble / purified antigen, …); experiment: Binding ELISA; drug product Batch A, 25°C/60% RH upright, 0.5 month
[18] = biological target: T1, human PD-1 (soluble / purified antigen, …); experiment: Binding ELISA; drug substance Batch A, -70°C, 1 month
[19] = biological target: T1, human PD-1 (soluble / purified antigen, …); experiment: Binding ELISA; drug product Batch A, -20°C, initial
[20] = biological target: T1, human PD-1 (soluble / purified antigen, …); experiment: Binding ELISA; drug product Batch B, 25°C/60% RH upright, 1 month
[21] = biological target: T1, human PD-1 (soluble / purified antigen, …); experiment: Binding ELISA; drug substance Batch A, -70°C, 6 months
[22] = biological target: T1, human PD-1 (soluble / purified antigen, …); experiment: Binding ELISA; drug product Batch A, 5°C inverted, 3 months
[23] = biological target: T1, human PD-1 (soluble / purified antigen, …); experiment: Binding ELISA; drug substance Batch B, -20°C, T = 0
[24] = biological target: T1, human PD-1 (soluble / purified antigen, …); experiment: Binding ELISA; drug substance Batch B, -20°C, 1 month
[25] = biological target: T1, human PD-1 (soluble / purified antigen, …); experiment: Binding ELISA; drug product Batch A, 5°C upright, initial
[26] = biological target: T1, human PD-1 (soluble / purified antigen, …); experiment: Binding ELISA; drug substance Batch B, 5°C, 3 months
[27] = biological target: T1, human PD-1 (soluble / purified antigen, …); experiment: Binding ELISA; drug product Batch A, 25°C/60% RH upright, initial

T1 sequence (Q15116 25-170 limits assumed): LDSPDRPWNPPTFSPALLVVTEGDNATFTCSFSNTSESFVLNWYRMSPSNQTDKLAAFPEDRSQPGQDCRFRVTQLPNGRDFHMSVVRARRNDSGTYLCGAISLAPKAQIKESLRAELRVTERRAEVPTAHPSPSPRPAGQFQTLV

B1: PD1AB-6-K3 (antibody, human IgG1, kappa)
heavy: EVQLVQSGAEVKKPGATVKISCKASGFNIKDTYMHWVQQAPGKGLEWMGRIDPANGDRKYDPKFQGRVTITADTSTDTAYMELSSLRSEDTAVYYCARSGPVYYYGSSYVMDYWGQGTTVTVSS[human IgG1 constant region with changes not written out]
light: DIVMTQSPDSLAVSLGERATINCKSGQSVLYSSNQKNFLAWYQQKPGQPPKLLIYWASTRESGVPDRFSGSGSGTDFTLTISSLQAEDVAVYYCHQYLYSWTFGQGTKLEIKRTVAAPSVFIFPPSDEQLKSGTASVVCLLNNFYPREAKVQWKVDNALQSGNSQESVTEQDSKDSTYSLSSTLTLSKADYEKHKVYACEVTHQGLSSPVTKSFNRGEC
notes: also called PD1AB-6-IgG1-K322A; PD1AB-6-K322A
Binding ELISA, ratio of Reference EC50/Sample EC50 [1]: 78%
Binding ELISA, ratio of Reference EC50/Sample EC50 [2]: 94%
Binding ELISA, ratio of Reference EC50/Sample EC50 [3]: 69%
Binding ELISA, ratio of Reference EC50/Sample EC50 [4]: 99%
Binding ELISA, ratio of Reference EC50/Sample EC50 [5]: 86%
Binding ELISA, ratio of Reference EC50/Sample EC50 [6]: 95%
Binding ELISA, ratio of Reference EC50/Sample EC50 [7]: 83%
Binding ELISA, ratio of Reference EC50/Sample EC50 [8]: 103%
Binding ELISA, ratio of Reference EC50/Sample EC50 [9]: 82%
Binding ELISA, ratio of Reference EC50/Sample EC50 [10]: 76%
Binding ELISA, ratio of Reference EC50/Sample EC50 [11]: 85%
Binding ELISA, ratio of Reference EC50/Sample EC50 [12]: 97%
Binding ELISA, ratio of Reference EC50/Sample EC50 [13]: 86%
Binding ELISA, ratio of Reference EC50/Sample EC50 [14]: 68%
Binding ELISA, ratio of Reference EC50/Sample EC50 [15]: 105%
Binding ELISA, ratio of Reference EC50/Sample EC50 [16]: 84%
Binding ELISA, ratio of Reference EC50/Sample EC50 [17]: 91%
Binding ELISA, ratio of Reference EC50/Sample EC50 [18]: 80%
Binding ELISA, ratio of Reference EC50/Sample EC50 [19]: 86%
Binding ELISA, ratio of Reference EC50/Sample EC50 [20]: 92%
Binding ELISA, ratio of Reference EC50/Sample EC50 [21]: 91%
Binding ELISA, ratio of Reference EC50/Sample EC50 [22]: 97%
Binding ELISA, ratio of Reference EC50/Sample EC50 [23]: 76%
Binding ELISA, ratio of Reference EC50/Sample EC50 [24]: 84%
Binding ELISA, ratio of Reference EC50/Sample EC50 [25]: 86%
Binding ELISA, ratio of Reference EC50/Sample EC50 [26]: 74%
Binding ELISA, ratio of Reference EC50/Sample EC50 [27]: 86%
